Experimental data from the RNAGym collection of RNA variant scans (doi:10.1073/pnas.2313332121).
Variants at the background level are over-represented here.

B1: TPR 5TU (parent)
chain: GGAUCUUCUCGAUCUAACAAAAAAGACAAAUCUGCCACAAAGCUUGAGAGCAUCUUCGGAUGCAGAGGCGGCAGCCUUCGGUGGCGCGAUAGCGCCAACGUUCUCAACUAUGACACGCAAAACGCGUGCUCCGUUGAAUGGAGUUUAUCAUG

Variants of: B1
Assay: polymerase ribozyme fitness, log enrichment relative to wild type (log ratio); higher = more active; in vitro selection for triplet polymerase activity
Outline: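 PCR was used to build mutant libraries for each subunit of a heterodimeric triplet polymerase ribozyme, which were then transcribed. A single in vitro selection round, in triplicate, used a frozen incubation at −7 °C and recovered extended constructs by gel excision, streptavidin beads and RT-PCR. Fitness is the logarithm of genotype enrichment relative to wild-type enrichment, averaged over replicates with inverse-variance weights. The logarithm is base 2, and after Illumina sequencing only genotypes with ≥10 input reads and ≥1 read per output were kept.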

A29C U101A U102C G141A and A29G A37G A52U C116U cannot be ordered by “polymerase ribozyme fitness (log ratio)” value: ≤ -4.2 for the first, ≤ -4.2 for the second.

A29G A37U A47U U55A G84U A89G A120C G140C U144G and A29G A39G A49G G50A U61A C85G G88A A97C G143U cannot be ordered by “polymerase ribozyme fitness (log ratio)” value: ≤ -4.2 for the first, ≤ -4.2 for the second.

A29G A39G U77A U145A and A29G A40C C87G G100C A150C cannot be ordered by “polymerase ribozyme fitness (log ratio)” value: ≤ -4.2 for the first, ≤ -4.2 for the second.

A29G A41C A47G C85G G92U U104G A137G G141U and A29G A41C U82G A106C cannot be ordered by “polymerase ribozyme fitness (log ratio)” value: ≤ -4.2 for the first, ≤ -4.2 for the second.

A29G A41G G59C C93U G94A and A29G A41G G81C G94C C105G G133C cannot be ordered by “polymerase ribozyme fitness (log ratio)” value: ≤ -4.2 for the first, ≤ -4.2 for the second.

A29G A41U A73U G83A and A29G A47U C76G U102A C105U cannot be ordered by “polymerase ribozyme fitness (log ratio)” value: ≤ -4.2 for the first, ≤ -4.2 for the second.

A29G A52C A73C G92C C105A and A29G A52C G67C C75U U77A A91G C93U A137U A150G cannot be ordered by “polymerase ribozyme fitness (log ratio)” value: ≤ -4.2 for the first, ≤ -4.2 for the second.

A29G A60C A89G A110U G143A and A29G A60C A97G G100U A121G cannot be ordered by “polymerase ribozyme fitness (log ratio)” value: ≤ -4.2 for the first, ≤ -4.2 for the second.

A29G A64U C76G C93G G126C C149A and A29G A91U cannot be ordered by “polymerase ribozyme fitness (log ratio)” value: ≤ -4.2 for the first, ≤ -4.2 for the second.

A29G C32U C57A A64G A91G C118U U145C U146A and A29G C35A U55A G62A C95A A110G A138C A150G cannot be ordered by “polymerase ribozyme fitness (log ratio)” value: ≤ -4.2 for the first, ≤ -4.2 for the second.

A29G C35A U56C C69G G71U A91G A98U A138G and A29G C36A A47C G50C C76A C85U C118A A121U U135G cannot be ordered by “polymerase ribozyme fitness (log ratio)” value: ≤ -4.2 for the first, ≤ -4.2 for the second.

A29G C36G C96A A97U A110G A119U G126C and A29G C36U U44C C116A A121C U139A G140A cannot be ordered by “polymerase ribozyme fitness (log ratio)” value: ≤ -4.2 for the first, ≤ -4.2 for the second.

A29G C51U G62A G84A U139G and A29G C54A C79A G94C G136C cannot be ordered by “polymerase ribozyme fitness (log ratio)” value: ≤ -4.2 for the first, ≤ -4.2 for the second.

A29G C54A C95G G133U and A29G C54G G88U G94U C114U A138G cannot be ordered by “polymerase ribozyme fitness (log ratio)” value: ≤ -4.2 for the first, ≤ -4.2 for the second.

A29G C54U U55A C57G C76G C87G C149U and A29G C57U C95G C118U cannot be ordered by “polymerase ribozyme fitness (log ratio)” value: ≤ -4.2 for the first, ≤ -4.2 for the second.

A29G C63G C99G A106C and A29G C69G A89U C96A cannot be ordered by “polymerase ribozyme fitness (log ratio)” value: ≤ -4.2 for the first, ≤ -4.2 for the second.

A29G C69U and A29G C76G C93U cannot be ordered by “polymerase ribozyme fitness (log ratio)” value: ≤ -4.2 for the first, ≤ -4.2 for the second.

A29G C79A G83U G94C A120G and A29G C85A cannot be ordered by “polymerase ribozyme fitness (log ratio)” value: ≤ -4.2 for the first, ≤ -4.2 for the second.

A29G C87A and A29G C87G cannot be ordered by “polymerase ribozyme fitness (log ratio)” value: ≤ -4.2 for the first, ≤ -4.2 for the second.

A29G C96U G124A and A29G C99G C125U cannot be ordered by “polymerase ribozyme fitness (log ratio)” value: ≤ -4.2 for the first, ≤ -4.2 for the second.

A29G C103G U104G and A29G C105G cannot be ordered by “polymerase ribozyme fitness (log ratio)” value: ≤ -4.2 for the first, ≤ -4.2 for the second.

A29G G34A A39U C72A U82G C96G and A29G G34A A49U G59U C76U C108A A119G cannot be ordered by “polymerase ribozyme fitness (log ratio)” value: ≤ -4.2 for the first, ≤ -4.2 for the second.

A29G G34A G112U U144A and A29G G34C C69G G128C cannot be ordered by “polymerase ribozyme fitness (log ratio)” value: ≤ -4.2 for the first, ≤ -4.2 for the second.

Going from A29G G42A U53G C75G C87U C93U C114U to A29G G46C A47C C132U U146A, the “polymerase ribozyme fitness (log ratio)” value rises from ≤ -4.2 to -4.16.

A29G G48A C96A and A29G G50A G67U C75G C85A C123G C125G C132U A142C cannot be ordered by “polymerase ribozyme fitness (log ratio)” value: ≤ -4.2 for the first, ≤ -4.2 for the second.

A29G G50C C96G U102A A150U and A29G G50C U55G A66U U102G cannot be ordered by “polymerase ribozyme fitness (log ratio)” value: ≤ -4.2 for the first, ≤ -4.2 for the second.

A29G G58C A60C G71A C129G and A29G G62U G141C cannot be ordered by “polymerase ribozyme fitness (log ratio)” value: ≤ -4.2 for the first, ≤ -4.2 for the second.

A29G G68A G128U G133C and A29G G68U A91G cannot be ordered by “polymerase ribozyme fitness (log ratio)” value: ≤ -4.2 for the first, ≤ -4.2 for the second.

A29G G68U C95G and A29G G81C C93A G133A G141A G152U cannot be ordered by “polymerase ribozyme fitness (log ratio)” value: ≤ -4.2 for the first, ≤ -4.2 for the second.

A29G G86A U102A G136C U144C and A29G G92U C123A G126U A142U C149U A150U cannot be ordered by “polymerase ribozyme fitness (log ratio)” value: ≤ -4.2 for the first, ≤ -4.2 for the second.

A29G G94A C95G U127A U148G and A29G G112C U135A A138G U146G cannot be ordered by “polymerase ribozyme fitness (log ratio)” value: ≤ -4.2 for the first, ≤ -4.2 for the second.

A29G U33A U55A G59U C105G A119C U127G and A29G U45A A107G A115G cannot be ordered by “polymerase ribozyme fitness (log ratio)” value: ≤ -4.2 for the first, ≤ -4.2 for the second.

A29G U45A C96A A110U A137C and A29G U55A A66U C69A G84U A120G U144C cannot be ordered by “polymerase ribozyme fitness (log ratio)” value: ≤ -4.2 for the first, ≤ -4.2 for the second.

A29G U55G C57G C87A A107G and A29G U55G C75G A89C G141C cannot be ordered by “polymerase ribozyme fitness (log ratio)” value: ≤ -4.2 for the first, ≤ -4.2 for the second.

A29G U56A U77C and A29G U56C C85G cannot be ordered by “polymerase ribozyme fitness (log ratio)” value: ≤ -4.2 for the first, ≤ -4.2 for the second.

A29G U61A G94U G126U G133U U151G and A29G U61A U139G A142U cannot be ordered by “polymerase ribozyme fitness (log ratio)” value: ≤ -4.2 for the first, ≤ -4.2 for the second.

A29G U61G C72G and A29G U77C C85A C108G cannot be ordered by “polymerase ribozyme fitness (log ratio)” value: ≤ -4.2 for the first, ≤ -4.2 for the second.

A29G U78G C95U and A29G U109G U135C G136A G141U cannot be ordered by “polymerase ribozyme fitness (log ratio)” value: ≤ -4.2 for the first, ≤ -4.2 for the second.

A29U A30C A47U G94A C118U A119U U144A U145C and A29U A30C C32A U56A U77C A121U cannot be ordered by “polymerase ribozyme fitness (log ratio)” value: ≤ -4.2 for the first, ≤ -4.2 for the second.

A29U A30U G42U C85U A107U and A29U A30U U55G A73G C93G C103U A122G G141U cannot be ordered by “polymerase ribozyme fitness (log ratio)” value: ≤ -4.2 for the first, ≤ -4.2 for the second.

A29U A37C and A29U A37C A49C A52G U53A G70U G143C cannot be ordered by “polymerase ribozyme fitness (log ratio)” value: ≤ -4.2 for the first, ≤ -4.2 for the second.

A29U A39C A40U U45G U77G and A29U A39G C85A A120C U146G cannot be ordered by “polymerase ribozyme fitness (log ratio)” value: ≤ -4.2 for the first, ≤ -4.2 for the second.
